The values that follow come from ChEMBL document CHEMBL4888484, “Replenishing the malaria drug discovery pipeline: Screening and hit evaluation of the MMV Hit Generation Library 1 (HGL1) against asexual blood stage Plasmodium falciparum ,using a nano luciferase reporter read-out” (2022).

The % Inhibition is the drop in the measured response relative to a control, in per cent.

Several values for one entry are separate records, joined by “and”; a condition that tells them apart may be missing. Equal entries are not always repeated. About 540 (0.36%) of roughly 150,000 compounds showed an effect of 50% or more. The list shows a part of the results.

The test system of this assay is Plasmodium falciparum. As to the kind of experiment: Primary screen in NF54 nanoGlo assay, in single point, at 2uM, 72h; a lower Z score goes with more inhibition. The class given is functional, Erythrocyte. The note with it: timepoint 72 hour.

Take `Cn1cncc1CCNC(=O)C1CCC(F)(F)CC1`: the “% Inhibition” value is -1% and the Z score is 0.19.
The like results for `CCn1cc(S(=O)(=O)N2CC(n3cnnc3-c3ccccc3)C2)cn1` were, in that order, -6% and 0.86.
As to `COc1cccc(C2=Nc3cccnc3N(CC(=O)Nc3ccc(C(F)(F)F)cc3)C(=O)C2)c1`, the “% Inhibition” value is recorded as 28% and the Z score is recorded as -3.2.
With `O=S(=O)(CC1CCCC1(F)F)NC[C@H]1CCC[C@@H]1O` (stereo partly specified), the “% Inhibition” value was -14% and the Z score turned out to be 2.63.
As for `O=C(O)[C@@H](c1ccccc1)n1sc2ccccc2c1=O`, for the setting “2 µM”, the “% Inhibition” value was -5% and -8%; the Z score is 0.8 and 1.51.
As to `COc1cccn(CC(=O)N2CC(OCc3ccccc3C)C2)c1=O`, the “% Inhibition” value is -1% and the Z score is recorded as 0.23.
With `COC(=O)c1cc2ccccc2c(CN2CCCc3cc(F)ccc32)c1O`, the “% Inhibition” value came out at 8% and the Z score is listed as -1.41.
Take `C[C@H]1CCc2[nH]c(=O)c(C(=O)N3CCOCC3)cc2C1`: the “% Inhibition” value came out at 0% and the Z score was found to be 0.04.
In the case of `CC(=O)N[C@H]1CN(c2nccc(N3CCC(O)CC3)n2)C[C@@H]1C1CC1`, the “% Inhibition” value is on record as -2% and the Z score came to 0.39.
Regarding `Cc1cc(C)n(CCCNCc2c(Cl)cccc2Cl)n1`, the “% Inhibition” value is -15% and the Z score is given as 1.53.
The like results for `O=C(Nc1cccc2cccnc12)c1cscn1` were, in that order, 9% and -1.21.
As to `C[C@H](Oc1ccc(Cl)cc1)C(=O)N1CCC(NS(=O)(=O)c2cccs2)CC1`, the “% Inhibition” value stood at 2% and the Z score is -0.22.
With `Cc1nc(-c2cc(S(=O)(=O)N3CCCCCC3)cn2C)sc1C(=O)N1CCOCC1`, the “% Inhibition” value is listed as -14% and the Z score was found to be 2.44.
The like results for `CN(C(=O)c1ccccc1-n1cnnn1)[C@H]1CCCN(Cc2ccccc2)C1` were, in that order, -1% and 0.13.
Take `CC(C)c1cc(C(=O)N[C@@H](Cn2ccnc2)C(C)C)nc2ncnn12`: the “% Inhibition” value is -5% and the Z score stood at 0.96.
In the case of `Cc1ccn2c(NC(=O)COc3ccccc3)c(-c3cccc(F)c3)nc2c1`, the “% Inhibition” value is on record as -17% and the Z score is listed as 3.3.
On to `O=C(c1ccc(NCCn2ccnc2)cc1)N1CC[C@@H]2CCC[C@@H]21`, for which the “% Inhibition” value is given as -6% and the Z score is reported as 1.22.
For the compound `COC(=O)Nc1sc2c(c1C#N)CC[C@H](c1ccccc1)C2`, the “% Inhibition” value came to 6% and the Z score is on record as -0.98.
On to `CNc1cc(C(=O)N[C@H]2CC[C@@H]3CCC[C@@H]32)ccn1`, for which the “% Inhibition” value stood at 9% and the Z score is recorded as -1.2.
`CCCn1ccnc1CN[C@H]1CCOC2(CCOCC2)C1`: the “% Inhibition” value is reported as -11% and the Z score turned out to be 1.33.
With `Cc1c[nH]c(-c2c(-c3ccccc3)ncn2CCNc2cccnc2)n1`, the “% Inhibition” value was -13% and the Z score amounted to 2.28.
Consider `C[C@H](Nc1ncc(C(F)(F)F)cc1Cl)c1cc(F)ccc1N1CCC(O)CC1`, for which the “% Inhibition” value is on record as -12% and the Z score stood at 1.52.
As to `Cc1ccc(C(=O)N2c3cc(C)ccc3[C@](C)(c3ccccc3)CC2(C)C)cc1`, the “% Inhibition” value is on record as -5% and the Z score was determined as 0.61.
As to `CC1=NS(=O)(=O)c2cccnc2N1c1ccccc1F`, the “% Inhibition” value is recorded as -8% and the Z score is reported as 0.81.
With `O=C(CCOc1ccccc1)N(Cc1nccs1)C1CC1`, the “% Inhibition” value is listed as -7% and the Z score was 1.16.
As for `Cn1cc(CCC(=O)NC(c2ccccn2)[C@H]2C[C@H](O)C2)cn1` (stereo partly specified), the “% Inhibition” value is -7% and the Z score is 1.
Turning to `CC(=O)N1CCC(CCC(=O)N2C[C@@H](C(C)C)Nc3ccccc32)CC1`, the “% Inhibition” value is given as -14% and the Z score came out at 1.6.
The like results for `O=S1(=O)CCCN1Cc1coc(-c2cccc(Cl)c2)n1` were, in that order, -7% and 1.4.
As for `CN1CCn2ccnc2C12CCN(S(=O)(=O)c1ccccc1Cl)CC2`, the “% Inhibition” value is on record as -17% and the Z score was found to be 2.27.
The like results for `c1cnc(N2CCC3CCCCC32)cn1` (stereo unspecified) were, in that order, 2% and -0.23.
With `Cc1noc(C)c1CC(=O)NC(Cc1ccccn1)[C@H]1C[C@@H](O)C1` (stereo partly specified), the “% Inhibition” value is -10% and the Z score turned out to be 1.28.
As for `CN1C(=O)[C@@H]2CCCCN2c2ccc(C(=O)NCCN3CCCC3)cc21`, the “% Inhibition” value came to 1% and the Z score is reported as -0.26.
`CCN(CC)c1onc(-c2ccccc2)c1CN(CC(C)C)C(=O)c1ccc2c(c1)OCO2`: the “% Inhibition” value was -3% and the Z score came to 0.5.
The like results for `OC1CN(Cc2ccns2)CCN(Cc2ccns2)C1` were, in that order, 3% and -0.38.
The like results for `Cc1cc(=O)n([C@@H](C)C(=O)N2CCOCC2)c2ccccc12` were, in that order, -7% and 0.8.
In the case of `CCO[C@@]1(C)C[C@H]1NC(=O)NC(c1ccccc1)C(F)F` (stereo partly specified), the “% Inhibition” value is given as -3% and the Z score turned out to be 0.46.
For the compound `Cc1nc(C(=O)N[C@H](c2ccncc2)C2CC2)c(=O)[nH]c1C`, the “% Inhibition” value is given as 3% and the Z score was -0.37.
As to `CN(C)S(=O)(=O)N(C)CCOC(=O)c1cccc2ccccc12`, the “% Inhibition” value was -9% and the Z score is 1.8.
The like results for `CCc1nccn1CCC(=O)N1C[C@@H]2CC[C@H]1CN(S(=O)(=O)N(C)C)C2` were, in that order, 2% and -0.48.
For `CCOc1ccc(CNC(=O)c2ccc3c(c2)nc2n3CCCC2)cc1`, the “% Inhibition” value is -16% and the Z score is 2.32.
With `O=C(CN(CC1CCCO1)C1CCN(CC(F)(F)F)C1)N1CCCC1` (stereo unspecified), the “% Inhibition” value is -14% and the Z score was 1.56.
The like results for `CCN1C[C@@H](CNC(=O)N(C)Cc2nc3ccccc3c(=O)[nH]2)CC1=O` were, in that order, 5% and -0.64.
In the case of `CN1c2cccnc2CN(C(=O)Nc2ccccc2)CC[C@H]1CO`, the “% Inhibition” value was -14% and the Z score was 2.09.
